# Results from the supplement of paper PMC8728848.
# The list shows a part of the results.
# Tests used:
# Assay in all cases: glycan array binding signal (z-score within array); higher = stronger binding
# Conditions in all cases: glycan notation: IUPAC condensed, linker removed
# [1] = biological target: Gal3S(b1-3)[Fuc(a1-4)]GlcNAc
# Summary of the method: (§1)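 The Consortium for Functional Glycomics database supplied 3228 glycan arrays, of which those lacking an available protein sequence were dropped. The binding signal, a within-array Z-score, was averaged across arrays of the same protein sequence and across linkers. Negative scores can be read as non-binding.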
# Gal3S(b1-4)Glc = biological target: Gal3S(b1-4)Glc
# Summary of the method: as §1
# Gal3S(b1-4)Glc6S = biological target: Gal3S(b1-4)Glc6S
# Summary of the method: as §1
# Gal3S(b1-4)GlcNAc = biological target: Gal3S(b1-4)GlcNAc
# Summary of the method: as §1
# [2] = biological target: Gal3S(b1-4)[Fuc(a1-3)]Glc6S
# Summary of the method: as §1
# [3] = biological target: Gal3S(b1-4)[Fuc(a1-3)]GlcNAc
# Summary of the method: as §1
# [4] = biological target: Gal3S(b1-4)[Fuc(a1-3)]GlcNAc6S
# Summary of the method: as §1
# Gal3S4S(b1-4)GlcNAc = biological target: Gal3S4S(b1-4)GlcNAc
# Summary of the method: as §1
# Gal3S6S(b1-4)GlcNAc = biological target: Gal3S6S(b1-4)GlcNAc
# Summary of the method: as §1
# Gal3S6S(b1-4)GlcNAc6S = biological target: Gal3S6S(b1-4)GlcNAc6S
# Summary of the method: as §1
# Gal4S(b1-4)GlcNAc = biological target: Gal4S(b1-4)GlcNAc
# Summary of the method: as §1
# Gal4S6S(b1-4)GlcNAc = biological target: Gal4S6S(b1-4)GlcNAc
# Summary of the method: as §1
# Gal6P(b1-4)GlcNAc = biological target: Gal6P(b1-4)GlcNAc
# Summary of the method: as §1
# Gal6S(b1-3)GlcNAc = biological target: Gal6S(b1-3)GlcNAc
# Summary of the method: as §1
# Gal6S(b1-3)GlcNAc6S = biological target: Gal6S(b1-3)GlcNAc6S
# Summary of the method: as §1
# Gal6S(b1-4)Glc = biological target: Gal6S(b1-4)Glc
# Summary of the method: as §1
# Gal6S(b1-4)Glc6S = biological target: Gal6S(b1-4)Glc6S
# Summary of the method: as §1
# Gal6S(b1-4)GlcNAc = biological target: Gal6S(b1-4)GlcNAc
# Summary of the method: as §1
# Gal6S(b1-4)GlcNAc6S = biological target: Gal6S(b1-4)GlcNAc6S
# Summary of the method: as §1
# GalNAc(a1-3)Gal = biological target: GalNAc(a1-3)Gal
# Summary of the method: as §1
# GalNAc(a1-3)GalNAc = biological target: GalNAc(a1-3)GalNAc
# Summary of the method: as §1
# [5] = biological target: GalNAc(a1-3)GalNAc(b1-3)Gal(a1-4)Gal(b1-4)Glc
# Summary of the method: as §1
# [6] = biological target: GalNAc(a1-3)GalNAc(b1-3)Gal(a1-4)Gal(b1-4)GlcNAc
# Summary of the method: as §1
# GalNAc(b1-3)Gal = biological target: GalNAc(b1-3)Gal
# Summary of the method: as §1
# [7] = biological target: GalNAc(b1-3)Gal(a1-4)Gal(b1-4)GlcNAc
# Summary of the method: as §1
# [8] = biological target: GalNAc(b1-3)Gal(a1-4)Gal(b1-4)GlcNAc(b1-3)Gal(b1-4)Glc
# Summary of the method: as §1
# [9] = biological target: GalNAc(b1-3)Gal(a1-6)Gal(b1-4)Glc
# Summary of the method: as §1
# GalNAc(b1-3)GalNAc = biological target: GalNAc(b1-3)GalNAc
# Summary of the method: as §1
# GalNAc(b1-3)GlcNAc = biological target: GalNAc(b1-3)GlcNAc
# Summary of the method: as §1
# GalNAc(b1-4)Gal(b1-4)Glc = biological target: GalNAc(b1-4)Gal(b1-4)Glc
# Summary of the method: as §1
# GalNAc(b1-4)GlcNAc = biological target: GalNAc(b1-4)GlcNAc
# Summary of the method: as §1
# [10] = biological target: GalNAc(b1-4)GlcNAc(b1-2)Man
# Summary of the method: as §1
# [11] = biological target: GalNAc(b1-4)GlcNAc(b1-2)Man(a1-3)[GalNAc(b1-4)GlcNAc(b1-2)Man(a1-6)]Man(b1-4)GlcNAc(b1-4)GlcNAc
# Summary of the method: as §1
# [12] = biological target: GalNAc(b1-4)GlcNAc(b1-3)GalNAc(b1-4)GlcNAc
# Summary of the method: as §1
# GalNAc(b1-4)GlcNAc6S = biological target: GalNAc(b1-4)GlcNAc6S
# Summary of the method: as §1
# GalNAc(b1-6)GalNAc = biological target: GalNAc(b1-6)GalNAc
# Summary of the method: as §1
# GalNAc3S(b1-4)GlcNAc = biological target: GalNAc3S(b1-4)GlcNAc
# Summary of the method: as §1
binder,measurement,setting,value
DC-ASGPR S+GEE (Homo sapiens) (protein) MTRTYENFQYLENKVKVQGFKNGPLPLQSLLQRLRSGPCHLLLSLGLGLLLLVIICVVGFQNSKFQRDLVTLRTDFSNFTSNTVAEIQALTSQGSSLEETIASLKAEVEGFKQERQAVHSEMLLRVQQLVQDLKKLTCQVATINNNGEEASTEGTCCPVNWVEHQDSCYWFSHSGMSWAEAEKYCQLKNAHLVVINSREEQNFVQKYLGSAYTWMGLSDPEGAWKWVDGTDYATGFQNWKPGQPDDWQGHGLGGGEDCAHFHPDGRWNDDVCQRPYHWVCEAGLGQTSQESH,glycan array binding signal (z-score),[1],-0.233
same,glycan array binding signal (z-score),Gal3S(b1-4)Glc,-0.309
same,glycan array binding signal (z-score),Gal3S(b1-4)Glc6S,-0.253
same,glycan array binding signal (z-score),Gal3S(b1-4)GlcNAc,-0.341
same,glycan array binding signal (z-score),[2],-0.238
same,glycan array binding signal (z-score),[3],-0.333
same,glycan array binding signal (z-score),[4],-0.32
same,glycan array binding signal (z-score),Gal3S4S(b1-4)GlcNAc,-0.365
same,glycan array binding signal (z-score),Gal3S6S(b1-4)GlcNAc,-0.324
same,glycan array binding signal (z-score),Gal3S6S(b1-4)GlcNAc6S,-0.311
same,glycan array binding signal (z-score),Gal4S(b1-4)GlcNAc,-0.365
same,glycan array binding signal (z-score),Gal4S6S(b1-4)GlcNAc,-0.252
same,glycan array binding signal (z-score),Gal6P(b1-4)GlcNAc,-0.321
same,glycan array binding signal (z-score),Gal6S(b1-3)GlcNAc,-0.247
same,glycan array binding signal (z-score),Gal6S(b1-3)GlcNAc6S,-0.28
same,glycan array binding signal (z-score),Gal6S(b1-4)Glc,-0.274
same,glycan array binding signal (z-score),Gal6S(b1-4)Glc6S,-0.259
same,glycan array binding signal (z-score),Gal6S(b1-4)GlcNAc,-0.262
same,glycan array binding signal (z-score),Gal6S(b1-4)GlcNAc6S,-0.287
same,glycan array binding signal (z-score),GalNAc(a1-3)Gal,2.48
same,glycan array binding signal (z-score),GalNAc(a1-3)GalNAc,1.12
same,glycan array binding signal (z-score),[5],0.831
same,glycan array binding signal (z-score),[6],0.965
same,glycan array binding signal (z-score),GalNAc(b1-3)Gal,3.1
same,glycan array binding signal (z-score),[7],4.67
same,glycan array binding signal (z-score),[8],4.39
same,glycan array binding signal (z-score),[9],3.63
same,glycan array binding signal (z-score),GalNAc(b1-3)GalNAc,0.463
same,glycan array binding signal (z-score),GalNAc(b1-3)GlcNAc,3.07
same,glycan array binding signal (z-score),GalNAc(b1-4)Gal(b1-4)Glc,-0.034
same,glycan array binding signal (z-score),GalNAc(b1-4)GlcNAc,2.76
same,glycan array binding signal (z-score),[10],2.7
same,glycan array binding signal (z-score),[11],0.801
same,glycan array binding signal (z-score),[12],3.84
same,glycan array binding signal (z-score),GalNAc(b1-4)GlcNAc6S,3.14
same,glycan array binding signal (z-score),GalNAc(b1-6)GalNAc,-0.388
same,glycan array binding signal (z-score),GalNAc3S(b1-4)GlcNAc,-0.351
